Assay results published in the supplement of paper PMC10126150.
Sequences with one replicate were seen in a single cluster, so their values are uncertain.

tested on: ATP; experiment: switch fluorescence ratio, 500 uM ATP over buffer (Cy3 cluster intensity, sum of 5 cycles each) (fold (ratio)); higher = stronger signal-on switching upon ATP binding; sequences stand for … in TCGTCGGCAGCGTCAGATGTGTATAAGAGACAGTTTTTTTTTTTTTTTTTTTTTTTTT…TC; conditions: aptamer strand: ATP DNA aptamer (quencher-CACCTGGGGGAGTATTGCGGAGGAAGG + anchor), 100 nM annealed; ATP concentration: 500 uM; one replicate
How it was run: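 Clusters carrying Cy3-labelled switching strands on a modified Illumina MiSeq flow-cell were annealed to 100 nM quencher-labelled ATP aptamer and imaged in selection buffer. They were imaged again after 15 min with 500 uM ATP at 22 °C, over five buffer/ATP cycles with NaOH stripping and re-annealing in between. For each cluster, the fluorescence ratio is the summed Cy3 intensity of the target cycles divided by that of the buffer cycles, averaged per switch-domain sequence. Clusters outside 100-1000 RFU were left out.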
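Also: ATP exposure 15 min at 22 °C before imaging.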

Row | Sequence | switch fluorescence ratio
1 | ATTCGACCAA | 1.14
2 | ATTCGACGTG | 0.967
3 | ATTCGAGACG | 1.06
4 | ATTCGAGGGT | 0.936
5 | ATTCGCATAG | 2.1
6 | ATTCGGAGAT | 0.965
7 | ATTCGGGACT | 1
8 | ATTCGTGGGT | 0.973
9 | ATTCTACATA | 1.03
10 | ATTCTACGAC | 1.1
11 | ATTCTACTCA | 1.01
12 | ATTCTCATAA | 0.99
13 | ATTCTTGGCT | 0.986
14 | ATTGAAGGTC | 1.04
15 | ATTGAAGTAG | 1.02
16 | ATTGAGAACA | 0.978
17 | ATTGATCTCA | 0.98
18 | ATTGATTAGC | 1
19 | ATTGCACTGT | 1.04
20 | ATTGCCAGAG | 1.04
21 | ATTGCCATAA | 0.984
22 | ATTGCGATTG | 1.03
23 | ATTGGAAGT | 0.969
24 | ATTGGACGA | 0.992
25 | ATTGGCTCTC | 1.02
26 | ATTGGCTGCA | 1.07

Row | Sequence | switch fluorescence ratio
27 | ATTGGTGCAT | 1
28 | ATTGGTGGAT | 1.03
29 | ATTGGTGTGC | 0.974
30 | ATTGGTTAAT | 0.938
31 | ATTGTACACC | 1.05
32 | ATTGTACCGA | 1.04
33 | ATTGTCCCTT | 1.05
34 | ATTGTGACTA | 0.965
35 | ATTGTGCAAA | 1.02
36 | ATTGTGCATC | 1.01
37 | ATTGTTAAC | 0.996
38 | ATTGTTAGTA | 0.991
39 | ATTTAAGCCA | 0.974
40 | ATTTAAGGAT | 1.04
41 | ATTTACACGG | 1.05
42 | ATTTAGAAAG | 0.996
43 | ATTTAGATAT | 1.04
44 | ATTTAGATTA | 0.992
45 | ATTTAGCCAC | 1.06
46 | ATTTATAGTG | 1.01
47 | ATTTATCGTG | 0.98
48 | ATTTATGTCA | 0.997
49 | ATTTATTCAA | 1.22
50 | ATTTATTCTC | 1.03
51 | ATTTCCGAAC | 1.19
52 | ATTTCGGTAT | 1.02

Row | Sequence | switch fluorescence ratio
53 | ATTTCTGAA | 0.982
54 | ATTTGACAAC | 0.976
55 | ATTTGACGAA | 1.02
56 | ATTTGATGGT | 0.958
57 | ATTTGCAAAA | 1.02
58 | ATTTGCGGTA | 1.02
59 | ATTTGCTAGG | 1
60 | ATTTGCTTCA | 1.02
61 | ATTTGGCAGC | 1.01
62 | ATTTGGGGCG | 0.99
63 | ATTTGGGTAA | 1
64 | ATTTGTGTAA | 0.996
65 | ATTTGTTTAA | 0.998
66 | ATTTTACGT | 1.02
67 | ATTTTAGACG | 1.11
68 | ATTTTAGATA | 0.974
69 | ATTTTAGTT | 0.988
70 | ATTTTATACC | 1.01
71 | ATTTTATGGT | 1.09
72 | ATTTTCGACC | 1.09
73 | ATTTTCGCCG | 1.06
74 | ATTTTCTTAA | 0.983
75 | ATTTTGGAAC | 1.03
76 | ATTTTGTATC | 1.01
77 | ATTTTTCAAA | 1.02
78 | ATTTTTCCTG | 1.03

Row | Sequence | switch fluorescence ratio
79 | ATTTTTGTG | 0.987
80 | CAAAAGAGCC | 1.01
81 | CAAAAGCCCT | 1.01
82 | CAAAATATAC | 2.4
83 | CAAAATCTCG | 1.05
84 | CAAACAACAA | 0.942
85 | CAAACATCT | 0.953
86 | CAAACATGCT | 1.03
87 | CAAACGCCTG | 1.05
88 | CAAACGTGTT | 1
89 | CAAACTTGTT | 0.961
90 | CAAAGAGTTA | 1
91 | CAAAGGTTAA | 0.981
92 | CAAAGTCTGA | 1.01
93 | CAAAGTGT | 1
94 | CAAATAAAGC | 0.962
95 | CAAATAGACT | 0.979
96 | CAAATAGCTC | 1.04
97 | CAAATATCCA | 1.02
98 | CAAATGTTA | 0.999
99 | CAAATTAAGA | 0.995
100 | CAAATTACAT | 1.02
101 | CAAATTCGTT | 0.992
102 | CAAATTTTCG | 0.954
103 | CAACAATTCT | 1.12
104 | CAACACACA | 1.27

Row | Sequence | switch fluorescence ratio
105 | CAACACAGTG | 1.04
106 | CAACCACCTT | 1.27
107 | CAACCCGG | 1.02
108 | CAACCCTTTT | 0.967
109 | CAACCTTGGC | 1.05
110 | CAACCTTTCC | 2.96
111 | CAACGAAAGA | 1.04
112 | CAACGGAGTA | 1.05
113 | CAACGTACCC | 1.5
114 | CAACGTCTCC | 1.14
115 | CAACGTTGTG | 1.03
116 | CAACTAGTGA | 1.02
117 | CAACTCCGTA | 1.26
118 | CAACTGCATC | 1.88
119 | CAACTGCTCG | 1.04
120 | CAACTTAAGG | 0.953
121 | CAACTTGCA | 0.996
122 | CAAGAACGAT | 1
123 | CAAGAATAGG | 0.969
124 | CAAGACAGTA | 0.998
125 | CAAGAGGCAT | 1
126 | CAAGATGGCA | 1.19
127 | CAAGCAGATT | 1
128 | CAAGCATCTG | 1.06
129 | CAAGCCAAAT | 1.03
130 | CAAGCGTAAT | 1.13

Row | Sequence | switch fluorescence ratio
131 | CAAGCTGCTC | 1.13
132 | CAAGGAGGAA | 1.01
133 | CAAGGAGGTG | 1.05
134 | CAAGGAGTCG | 1.06
135 | CAAGGATGAG | 0.983
136 | CAAGGCAACC | 1.27
137 | CAAGGCACTA | 1.07
138 | CAAGGCTGCG | 0.973
139 | CAAGGGATGT | 1.02
140 | CAAGGGGCCC | 0.986
141 | CAAGGGGCCT | 0.976
142 | CAAGGGTGTC | 1.05
143 | CAAGGGTTGG | 0.989
144 | CAAGGTACTA | 1.04
145 | CAAGGTCTTG | 0.979
146 | CAAGGTGCAT | 1.28
147 | CAAGGTGTCA | 1.03
148 | CAAGTACAGT | 1.19
149 | CAAGTAGGTT | 1.2
150 | CAAGTCCGCT | 1.2
151 | CAAGTCGGCT | 1
152 | CAAGTCGGGA | 1.01
153 | CAAGTTCATC | 1.01
154 | CAAGTTGACG | 1.1
155 | CAAGTTTAGT | 0.995
156 | CAAGTTTCCC | 0.978

Row | Sequence | switch fluorescence ratio
157 | CAAGTTTTGG | 1.03
158 | CAATAAATCA | 0.99
159 | CAATAACAGG | 1.07
160 | CAATAATACT | 1.18
161 | CAATAATTCA | 1.03
162 | CAATAATTGC | 1.03
163 | CAATAGATG | 0.982
164 | CAATAGTCCT | 1.26
165 | CAATAGTCTG | 1.06
166 | CAATATAGA | 0.991
167 | CAATATAGG | 1
168 | CAATATATGG | 0.964
169 | CAATATCATG | 0.993
170 | CAATATCTCT | 1.05
171 | CAATCAAGAT | 1.01
172 | CAATCACT | 0.999
173 | CAATCATAAT | 1.11
174 | CAATCTAGCA | 1.02
175 | CAATCTGCCA | 1.05
176 | CAATCTTAA | 1.02
177 | CAATGAAGTC | 0.977
178 | CAATGAAGTG | 0.977
179 | CAATGACCTT | 1.22
180 | CAATGAGGCA | 0.965
181 | CAATGCAATA | 3.54
182 | CAATGCCAGG | 1.22

Row | Sequence | switch fluorescence ratio
183 | CAATGCCGTT | 1.02
184 | CAATGGCCAC | 0.995
185 | CAATGGTTA | 0.973
186 | CAATGTGATG | 1.03
187 | CAATGTGTAA | 1
188 | CAATGTGTCC | 1.05
189 | CAATGTGTGT | 0.985
190 | CAATGTTGCG | 1.02
191 | CAATTACACT | 1.03
192 | CAATTACAGT | 1.03
193 | CAATTAGGGG | 0.972
194 | CAATTATATT | 0.969
195 | CAATTATCTA | 0.976
196 | CAATTCCCTG | 1.04
197 | CAATTCTGGT | 0.953
198 | CAATTGCGC | 1.03
199 | CAATTGGTAG | 0.986
200 | CAATTTAAAG | 0.959
201 | CAATTTAAAT | 0.954
